The campaign covered roughly 310,000 compounds. About 14,000 (4.5%) showed an effect of 50% or more. Effects have a minus sign here. The list shows a part of the results.
molecular target: human ether-à-go-go-related gene (hERG) potassium channel (human, UniProt Q12809); test: primary screen, population patch clamp on CHO cells stably expressing hERG
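Further: peak tail current of the secondary pulse compared with the same well before compound.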

Sequence of human ether-à-go-go-related gene (hERG) potassium channel (Q12809 whole entry, looked up): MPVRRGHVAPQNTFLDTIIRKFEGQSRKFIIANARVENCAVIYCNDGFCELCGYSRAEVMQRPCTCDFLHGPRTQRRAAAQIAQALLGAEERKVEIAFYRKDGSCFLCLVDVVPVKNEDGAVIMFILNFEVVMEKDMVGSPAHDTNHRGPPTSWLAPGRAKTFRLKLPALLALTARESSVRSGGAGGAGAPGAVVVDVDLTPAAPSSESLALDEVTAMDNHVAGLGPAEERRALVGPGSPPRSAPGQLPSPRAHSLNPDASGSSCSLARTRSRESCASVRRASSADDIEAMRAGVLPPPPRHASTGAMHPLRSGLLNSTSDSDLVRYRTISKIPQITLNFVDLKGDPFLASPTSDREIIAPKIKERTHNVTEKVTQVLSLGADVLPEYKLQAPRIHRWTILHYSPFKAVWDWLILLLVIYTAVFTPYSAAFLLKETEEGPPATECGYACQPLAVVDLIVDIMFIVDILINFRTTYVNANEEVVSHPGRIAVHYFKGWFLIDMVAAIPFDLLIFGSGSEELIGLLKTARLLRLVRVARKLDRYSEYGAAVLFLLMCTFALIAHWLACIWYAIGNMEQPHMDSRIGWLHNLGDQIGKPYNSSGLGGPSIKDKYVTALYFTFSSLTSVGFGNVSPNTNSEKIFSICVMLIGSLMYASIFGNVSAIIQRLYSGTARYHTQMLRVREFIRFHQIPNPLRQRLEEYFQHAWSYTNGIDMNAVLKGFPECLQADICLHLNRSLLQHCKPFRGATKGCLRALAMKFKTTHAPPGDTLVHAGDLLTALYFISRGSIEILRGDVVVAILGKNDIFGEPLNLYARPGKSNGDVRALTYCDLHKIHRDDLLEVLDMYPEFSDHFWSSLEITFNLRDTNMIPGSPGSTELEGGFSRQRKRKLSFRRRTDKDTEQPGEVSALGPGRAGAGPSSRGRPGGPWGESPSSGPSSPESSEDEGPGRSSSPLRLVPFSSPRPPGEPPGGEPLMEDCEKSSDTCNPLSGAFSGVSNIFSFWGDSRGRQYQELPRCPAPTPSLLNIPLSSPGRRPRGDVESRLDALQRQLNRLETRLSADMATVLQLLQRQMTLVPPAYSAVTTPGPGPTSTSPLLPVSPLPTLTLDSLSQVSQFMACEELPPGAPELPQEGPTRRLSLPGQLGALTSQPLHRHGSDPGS

Structure (SMILES)	hERG current change (%, negative = inhibition) at 10uM
O=C(NC(=S)Nc1ccc(NC(=O)c2cccs2)cc1)c1cc2ccccc2o1	6.24%
CC1CN(C(=O)CSc2ncnc3sccc23)CC(C)O1 (stereo not drawn)	5.07%
COc1ccccc1CNCc1cc(OC)c(OC)cc1OC	-10.3%
CC(=O)N1CCOc2ccc(S(=O)(=O)NCCc3ccc(S(N)(=O)=O)cc3)cc21	12.2%
Cc1ccc(C2=NNC(c3cccc(F)c3)S2)cc1 (stereo not drawn)	-5.04%
CCn1nc(C)c(CNC(=O)c2cc(COc3ccc(C)nc3)on2)c1C	13.3%
Cc1nn(C)cc1CNC(=O)/C=C/c1cnn(C)c1	6.62%
CCn1cc(Cl)c(C(=O)NNC(=O)CCn2nc(C)c([N+](=O)[O-])c2C)n1	-2.89%
O=C(Cc1ccc(-n2c(=O)[nH]c3ccsc3c2=O)cc1)NCc1cccnc1	18.9%
CCOc1ccc(N2CC(C(=O)NC3CCSC3=O)CC2=O)cc1 (stereo not drawn)	25.6%
CCOc1ccc(/C=C/C(=O)c2ccc(-c3ccccc3)cc2)cc1	26.6%
Oc1c(Br)cc(Br)cc1/C=N/NC(=S)N[C@H]1CC2C=CC1C2 (stereo partly drawn)	18.9%
COc1ccc(NC(=O)CN2CCC(n3c(C)nc4cc(F)ccc43)CC2)c(OC)c1	-4.64%
O=C(COc1ccc2ccccc2c1)NNC(=O)[C@@H]1CCCC[C@@H]1C(=O)O	24%
CSc1cccc(CNC(=O)C2CCC(=O)N(CC3CCCCC3)C2)c1 (stereo not drawn)	-2.28%
COc1ccc(CN(C(=O)CSc2nnc(-c3ccc(OC)c(OC)c3)o2)c2ccc(F)cc2)cc1	-7.44%
CC(=O)N1c2ccc(S(=O)(=O)N3CCC(C(=O)Nc4cc(C)ccn4)CC3)cc2CC1C (stereo not drawn)	13.8%
Cc1cc2ccccc2n1CCNC(=O)COc1ccc2ccccc2c1	8.14%
Cc1nn2c(NCCOCCO)c3c(nc2c1-c1ccccc1)CCCC3	-74.2%
CC(Oc1ccccc1)C(=O)Nc1ccc(S(=O)(=O)NCC2CCCO2)cc1 (stereo not drawn)	1.75%
CCn1c(=O)cc(SCC(=O)N2CCC(C)CC2)c2ccccc21	-11.7%

Structure (SMILES)	hERG current change (%, negative = inhibition) at 10uM
O=C(NC1CCCCC1)C(=S)NCc1ccccc1	-3.3%
Cc1c(N2C(=O)CSC2=S)c(=O)n(-c2ccccc2)n1C	13.6%
CC(C)CNC(=O)C1Nc2ccccc2C2C=CCC12 (stereo not drawn)	-6.43%
CC1CCCN(S(=O)(=O)c2ccc(NC(=O)Cn3nnc(-c4ccccc4F)n3)cc2)C1 (stereo not drawn)	1.45%
CN(C)C(=O)c1ccc(NC(=O)c2cc(-n3cnnc3)ccc2Cl)cc1	7.38%
CCC(C)NC(=O)CCC(=O)OC1O[C@H]2OC3(C)CC[C@H]4[C@H](C)CCC(C1C)C24OO3 (stereo partly drawn)	-16.3%
Clc1ccccc1Sc1ccc(-c2ccccn2)s1	0.592%
O=C(Nc1ccc(Cl)cn1)Nc1ccc(Cl)cn1	12.5%
CCN(Cc1ccccc1)C(=O)c1ccc(N(C)S(=O)(=O)c2ccc(C)cc2)cc1	-38.7%
O=C(N/N=C\c1ccc(-c2cccc(Cl)c2)o1)C(=O)NC1CCCC1	5.84%
COc1cc(C(=O)N/N=C/c2cn(Cc3cccc(F)c3)c3ccccc23)ccc1O	12.5%
COc1ccc2cnn(-c3ccc(OC(F)(F)F)cc3)c(=O)c2c1OC	-6%
CCOCCCN1CC(=O)N2[C@@H](Cc3c([nH]c4ccccc34)C2(C)C)C1=O	-12%
O=C(CCS(=O)(=O)c1ccccc1)Nc1nc(-c2ccccn2)cs1	-1.47%
Cc1ccc(C(=O)N(CC(=O)NC2CCCC2)c2ccc(F)cc2)s1	-0.0124%
CCSc1nnc2c3cc(CC)ccc3n(C)c2n1	24.2%
CC(C)[C@H](NC(=O)OCc1ccccc1)C(=O)OCC(=O)Nc1ccc(N2CCOCC2)cc1	-15.1%
Cc1ccc(-n2[nH]c(C)c(C=Nc3ccc4[nH]c(=O)[nH]c4c3)c2=O)cc1	15.2%
COc1ccc(F)cc1C(=O)C1CCCN(C(=O)Cc2c(C)noc2C)C1 (stereo not drawn)	-5.04%
O=C(O)COc1ccccc1/C=N/NC(=O)c1cc(-c2ccc(F)cc2)nc2ccccc12	-0.318%
CC(C)[C@H](NC(=O)OCc1ccccc1)C(=O)OCC(=O)N1CCN(c2ccccc2)CC1	-58.3%

Source: paper PMC4336329 (PLoS ONE, 2015)
